# According to ChEMBL document CHEMBL4888484, “Replenishing the malaria drug discovery pipeline: Screening and hit evaluation of the MMV Hit Generation Library 1 (HGL1) against asexual blood stage Plasmodium falciparum ,using a nano luciferase reporter read-out” (2022):
# Out of some 150,000 compounds screened, about 540 (0.36%) showed an effect of 50% or more. This is one part of the list.
# System: Plasmodium falciparum
# Experiment: Primary screen in NF54 nanoGlo assay, in single point, at 2uM, 72h; a lower Z score goes with more inhibition
# Type: functional, Erythrocyte
# Conditions: timepoint 72 hour
SMILES,% Inhibition [%],Z score
Cc1nc([C@@H]2C[C@@H](O)CN2)n(C2CCCCC2)n1,2,-0.27
O=S(=O)(Cc1ccc(Cl)cc1)N1CCN(C2CCCC2)CC1,-16,2.41
COc1cccc(NC(=O)Cc2c(C)nn(-c3nc(-c4ccc(C)cc4)cs3)c2C)c1,-13,1.45
Cc1cc(CN2C[C@H](C)Oc3c(Cl)cccc32)no1,0,0.03
CC(C)(CN1CC(C)(C)[C@@](C)(O)C1)N1CCCCC1,-13,2.18
CCc1nn(C)cc1CNC(=O)N(C)Cc1cc(F)c(F)c(F)c1,5,-0.88
NS(=O)(=O)c1ccc(CCn2cnc3cnccc3c2=O)cc1,-7,0.98
C[C@H](O)c1onc(-c2cccs2)c1C(=O)NC1CCCCC1,-7,1.13
O=C(NCc1ccccn1)C(CN(Cc1ccc2c(c1)OCO2)CC1CCCO1)Oc1cccc(F)c1 (configuration not stated),3,-0.24
CCc1ccc(C(C)NC[C@H]2CCCN2S(C)(=O)=O)o1 (some centres not stated),-13,1.08
O=c1c2cc(Br)cc(F)c2ncn1CC[C@H]1CCCO1,-13,2.09
O=C(CCCOc1ccccc1)NCc1cccnc1,-9,1.03
CCN1CC(=O)N([C@@H](c2ccccc2)c2ccccn2)C1=O,-2,0.22
CCOc1ccc(N2C[C@@H](C(=O)NCCc3ccco3)CC2=O)cc1,0,-0.05
N#Cc1cnccc1CN1CCC2(CCC2)S(=O)(=O)CC1,1,-0.13
Cc1nc(C)c(CNC2(CN3CCN(c4ccc(F)cc4)CC3)CC2)o1,-8,1.55
Cc1ccnn1CCC(=O)N1CCC[C@H](c2nc3ccccc3s2)C1,-15,1.55
O=c1c2ccccc2n(Cc2ccc(F)cc2Cl)c(=O)n1Cc1ccccc1,-2,0.22
CN(CC1(c2ccccc2)CC1)C(=O)C[C@H]1CC(=O)NC1=O,-13,1.76

SMILES,% Inhibition [%],Z score
Cc1nn(C)c2nc(N3CCC[C@H](N(C)C)CC3)sc12,-5,0.79
CCCOC[C@H]1CCN(C(=O)c2c(C)ncnc2C)C1,-21,2.77
Cc1cc(C(=O)NC2CCC(CO)CC2)cc(O)n1 (configuration not stated),-11,1.12
CC(=O)N1CCC(NC(C)c2cc(C)on2)C1 (configuration not stated),10,-1.86
COCCN1CCCC(NCC2CC=CCC2)C1 (configuration not stated),-10,1.39
O=C(c1noc2c1CCCC2)N1CCN(C2CCCCC2)CC1,-1,0.16
CCS(=O)(=O)NC[C@H](C)NCc1cnc(C)c(C)c1,14,-1.8
CC1CCC(N2C[C@@H](C(=O)OCC(C)(C)C)CC2=O)CC1 (some centres not stated),41,-5.32
Cc1nc(NCc2nn(C)cc2Cl)sc1C,-3,0.39
O=C(NCCc1cccnc1)c1ccc2ccccc2n1,-8,1.41
Cc1ccc(NC(=O)Cn2nc3n(c2=O)CCCC3)cc1,-9,1.2
O=C(c1cnc(Nc2ccc(Cl)cc2)c(Cl)c1)N1C[C@H](O)C[C@H]1CO,0,-0.05
O=C(c1ccccn1)N1CCCn2nnnc21,-20,2.43
O=C(CCC(=O)N1CCC(O)CC1)NCCC1=CCCCCC1,-1,0.23
CNc1ncccc1C(=O)N1CC[C@]2(OC)CC[C@H](OC)C[C@H]12,1,-0.1
CN(C)CCN1C(=O)CC[C@@H]1CCNC(=O)c1c[nH]c2c(F)cccc2c1=O,15,-2.07
CC(C)C(=O)NS(=O)(=O)c1cccc2c1N=S=N2,32,-3.66
Cc1nnc2c(=O)n(CC(=O)N3CCCCC3)c3cccnc3n12,-16,2.07
CN1N=C(C(=O)NC(C)(C)CC(C)(C)C)CCC1=O,6,-0.51

SMILES,% Inhibition [%],Z score
C#CC(CC)(CC)NS(=O)(=O)c1ccc(F)cc1,-6,1.1
Cc1cscc1C(=O)N1CCN([C@H](C#N)c2ccccc2)CC1,-1,0.09
COc1cc(OC)cc(N(C)Cc2nc(N(C)C)no2)c1,-7,0.98
Cc1ccc(NC(=O)NCCN2CCO[C@@H](C)C2)c(N(C)C)n1,10,-1.76
COc1cc(-c2noc(CC(C)(C)C)n2)ccc1OCc1ccc(F)c(F)c1,-5,1.01
O=C(CN1CCC[C@H]1C1CCCC1)NCC1CCCCC1,43,-3.96
Cc1ccc(N2CCN(c3nc4c(c(N(C)C)n3)CN(C(=O)c3ccc(F)cc3)CC4)CC2)cc1,-8,1.6
COC(=O)C1C2CCCC2CN1Cc1nnc(C)o1 (configuration not stated),3,-0.4
CN(Cc1ccc(Br)cc1)Cn1nc([C@H]2CCS(=O)(=O)C2)oc1=S,-11,2.16
COc1ccccc1CNc1ncnc2sc(C(=O)N3CCCC[C@@H]3C)c(C)c12,-3,0.5
O=C(Nc1ccc(F)c(Cl)c1)C1=CCN(Cc2ccccc2F)CC1,1,-0.1
CCc1cnc(CNC(=O)Nc2ccnc(C3(C)CC3)n2)o1,-5,1.01
OC[C@@H]1CCN(c2cc(-c3ccccc3)nc3ccccc23)C[C@@H]1O,-10,2.07
O=C(c1[nH]nc2c1CCC2)N1CCN(c2ccc(F)cc2)CC1,-5,0.84
Cc1cc(NC(=O)c2cc(C3CC3)on2)no1,0,0.05
Nc1nc2cc(C(=O)N3CCN(c4cnccn4)CC3)ccc2s1,-1,0.1
CN(Cc1cc(Br)ccc1Cl)C(=O)CO,-2,0.25
CCOC(=O)c1cccc(NC(=O)CCc2[nH]c(C)c(C(=O)OCC)c2C)c1,0,0
